The list shows a part of the results. The full chains were built here from the parent and the listed change. Values near 0.05 are background.

These results are taken from the supplement of paper PMC12217912.

First the molecules themselves.
B1: TEV protease; numbered along this chain (parent)
chain: MGESLFKGPRDYNPISSSICHLTNESDGHTTSLYGIGFGPFIITNKHLFRRNNGTLVVQSLHGVFKVKDTTTLQQHLVDGRDMIIIRMPKDFPPFPQKLKFREPQREERICLVTTNFQTKSMSSMVSDTSCTFPSGDGIFWKHWIQTKDGQCGSPLVSTRDGFIVGIHSASNFTNTNNYFTSVPKNFMELLTNQEAQQWVSGWRLNADSVLWGGHKVFMVKPEEPFQPVKEATQL

In the test the parent is B1. Briefly: raw area under fraction-flipped curve 0-4 h after induction (AUC4h, not background-subtracted), DNA-recorder readout of cleavage of the substrate (dimensionless); higher = more cleavage of the substrate by the protease variant. Particulars: temperature: 34 °C; time window: 0-4 h after rhamnose induction. As for the experimental part: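 In vivo DNA recorder in E. coli TOP10(DE3) ΔrhaA at 34 °C. Each TEVp single-site mutant (parent TEVp 0) is paired with a single-site variant of the 7-mer TEVs (canonical ENLYFQ|S). The substrate sits between flexible linkers in a Bxb1-sfGFP-TEVs-SsrA fusion, so cleavage stabilises Bxb1 and speeds flipping of a recombination array, read by NGS. The value is the raw area under the fraction-flipped curve over 0-4 h after rhamnose induction (AUC4h), with ≥20 reads per time point. It is not background-subtracted; inactive controls average about 0.047.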
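Note: Bxb1 expression induced with 0.2% (w/v) L-rhamnose at OD600 near 0.5, cultures sampled hourly, flipped fraction per protease–substrate barcode pair counted by paired-end Illumina sequencing.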

Turning to T233Q, the “area with substrate ENLYCQS” value came to 0.102, the “area with substrate ENLYDQS” value came to 0.071, the “area with substrate ENLYEQS” value was 0.0628 and the “area with substrate ENLYGQS” value was found to be 0.0775. For the same variant, the “area with substrate ENLYHQS” value was determined as 0.0795, the “area with substrate ENLYIQS” value was 0.151, the “area with substrate ENLYNQS” value was found to be 0.087 and the “area with substrate ENLYPQS” value stood at 0.0739. Besides, the “area with substrate ENLYQQS” value is 0.072, the “area with substrate ENLYRQS” value worked out at 0.069, the “area with substrate ENLYSQS” value stood at 0.0484 and the “area with substrate ENLYTQS” value was 0.0838. Also, the “area with substrate ENLYWQS” value worked out at 0.0877.
In the case of I85Y, the “area with substrate ENLYCQS” value stood at 0.0225, the “area with substrate ENLYEQS” value was 0.0496, the “area with substrate ENLYGQS” value is 0.0475 and the “area with substrate ENLYHQS” value was 0.0543. Moreover, the “area with substrate ENLYIQS” value stood at 0.0628, the “area with substrate ENLYKQS” value was 0.0572, the “area with substrate ENLYLQS” value turned out to be 0.0936 and the “area with substrate ENLYMQS” value is 0.0674. For the same variant, the “area with substrate ENLYQQS” value was 0.059, the “area with substrate ENLYRQS” value was found to be 0.0648, the “area with substrate ENLYVQS” value is 0.0709 and the “area with substrate ENLYWQS” value was 0.0585.
Regarding S130V, the “area with substrate ENLYCQS” value was determined as 0.123, the “area with substrate ENLYDQS” value amounted to 0.0652, the “area with substrate ENLYEQS” value worked out at 0.0625 and the “area with substrate ENLYGQS” value turned out to be 0.066. Besides, the “area with substrate ENLYHQS” value amounted to 0.0637, the “area with substrate ENLYIQS” value turned out to be 0.122, the “area with substrate ENLYKQS” value is 0.0534 and the “area with substrate ENLYMQS” value worked out at 0.0811. Besides, the “area with substrate ENLYNQS” value was 0.0694, the “area with substrate ENLYRQS” value was determined as 0.0444, the “area with substrate ENLYSQS” value came to 0.0837 and the “area with substrate ENLYVQS” value amounted to 0.113. For the same variant, the “area with substrate ENLYWQS” value was found to be 0.0721 and the “area with substrate ENLYYQS” value is 0.0508.
As to M122V, the “area with substrate ENLYCQS” value came out at 0.101, the “area with substrate ENLYEQS” value came to 0.0629, the “area with substrate ENLYHQS” value came to 0.0698 and the “area with substrate ENLYIQS” value was 0.105. Moreover, the “area with substrate ENLYKQS” value came to 0.0114, the “area with substrate ENLYMQS” value was 0.0769, the “area with substrate ENLYNQS” value was 0.0625 and the “area with substrate ENLYPQS” value came out at 0.0721. The “area with substrate ENLYQQS” value was found to be 0.0604, the “area with substrate ENLYRQS” value amounted to 0.106, the “area with substrate ENLYVQS” value is 0.0883 and the “area with substrate ENLYWQS” value is 0.0867.
Regarding V183P, the “area with substrate ENLYCQS” value turned out to be 0.0754, the “area with substrate ENLYDQS” value was 0.059, the “area with substrate ENLYEQS” value is 0.0594 and the “area with substrate ENLYGQS” value worked out at 0.0689. Moreover, the “area with substrate ENLYHQS” value amounted to 0.0608, the “area with substrate ENLYIQS” value was found to be 0.1, the “area with substrate ENLYKQS” value was 0.0581 and the “area with substrate ENLYLQS” value is 0.0537. Moreover, the “area with substrate ENLYMQS” value was 0.0758, the “area with substrate ENLYNQS” value amounted to 0.0593, the “area with substrate ENLYPQS” value stood at 0.0562 and the “area with substrate ENLYQQS” value worked out at 0.0597. Also, the “area with substrate ENLYRQS” value worked out at 0.0579, the “area with substrate ENLYSQS” value came out at 0.0895, the “area with substrate ENLYTQS” value came to 0.0686 and the “area with substrate ENLYVQS” value is 0.102. Further, the “area with substrate ENLYWQS” value worked out at 0.0705 and the “area with substrate ENLYYQS” value is 0.0438.
Consider Y179S, for which the “area with substrate ENLYCQS” value worked out at 0.0587, the “area with substrate ENLYDQS” value was 0.0886, the “area with substrate ENLYEQS” value was 0.0578 and the “area with substrate ENLYKQS” value turned out to be 0.052. For the same variant, the “area with substrate ENLYLQS” value came to 0.0583, the “area with substrate ENLYNQS” value came to 0.056, the “area with substrate ENLYPQS” value was 0.107 and the “area with substrate ENLYQQS” value was 0.0692. Besides, the “area with substrate ENLYSQS” value turned out to be 0.0666, the “area with substrate ENLYVQS” value came to 0.0505, the “area with substrate ENLYWQS” value came out at 0.0469 and the “area with substrate ENLYYQS” value was 0.0447.
